Z-score data for 74 compounds are collected here from PubChem BioAssay AID488969 (Vanderbilt High Throughput Screening Facility, 2010).

The structures appear in SMILES notation. In all, about 110,000 compounds were measured (“z-score”: median about -0.1, highest 2% from about 2 on). This is one part of the list.

This assay has as its target Metabotropic glutamate receptor 8 (Rattus norvegicus) (UniProt P70579). As to the kind of experiment: rat mGluR8 modulators via GIRK flux, primary screen, cell-based, thallium flux, HTS (AID 488969). The note with it: HEK293 rat mGluR8, GIRK (G protein-gated inwardly rectifying potassium channel) thallium flux, FluoZin2; at 10 µM; stronger effect = higher value; submaximal glutamate (EC20) added with thallium.
UniProt P70579, sequence (P70579 whole entry, looked up): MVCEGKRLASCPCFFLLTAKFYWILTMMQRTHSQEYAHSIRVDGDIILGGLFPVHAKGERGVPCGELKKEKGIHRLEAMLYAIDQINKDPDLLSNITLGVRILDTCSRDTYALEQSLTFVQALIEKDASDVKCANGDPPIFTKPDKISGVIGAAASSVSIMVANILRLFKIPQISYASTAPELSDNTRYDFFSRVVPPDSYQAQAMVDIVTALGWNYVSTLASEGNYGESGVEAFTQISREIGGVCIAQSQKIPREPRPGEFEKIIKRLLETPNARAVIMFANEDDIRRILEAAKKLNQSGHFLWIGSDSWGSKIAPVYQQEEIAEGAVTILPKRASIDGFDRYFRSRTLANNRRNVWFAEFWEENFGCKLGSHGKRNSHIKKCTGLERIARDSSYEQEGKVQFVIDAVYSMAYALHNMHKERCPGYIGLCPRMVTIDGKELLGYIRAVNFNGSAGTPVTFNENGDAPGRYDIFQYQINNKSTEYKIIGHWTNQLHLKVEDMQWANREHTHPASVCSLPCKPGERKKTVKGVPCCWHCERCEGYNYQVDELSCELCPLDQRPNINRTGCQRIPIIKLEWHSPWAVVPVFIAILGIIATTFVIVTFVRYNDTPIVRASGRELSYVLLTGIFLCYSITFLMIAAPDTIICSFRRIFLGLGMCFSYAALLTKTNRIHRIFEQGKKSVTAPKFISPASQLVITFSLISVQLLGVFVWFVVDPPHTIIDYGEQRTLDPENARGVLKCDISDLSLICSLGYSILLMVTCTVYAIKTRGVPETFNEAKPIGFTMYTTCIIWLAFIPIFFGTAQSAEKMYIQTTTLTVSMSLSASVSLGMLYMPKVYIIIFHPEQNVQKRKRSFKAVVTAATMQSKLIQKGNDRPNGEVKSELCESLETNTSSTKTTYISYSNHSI
`CCCCCCc1c(O)nc(SCC(=O)O)[nH]c1=O` returned a z-score of 0.353.

The compound `Cc1ccccc1Cn1c(=O)n(CC2CCC(C(=O)NCCc3ccccc3)CC2)c(=O)c2ccccc21` (centres undefined) showed a z-score of -0.211. `C=CCOc1ccc2c(CC)cc(=O)oc2c1C` displayed a z-score of -0.699. `CCOC(=O)c1c(C=O)c(C)n(Cc2ccc(C)cc2)c1C`: the z-score is -0.259. Take `CCc1ccc(-c2csc(NC(=O)C3CC(=O)N(c4ccc5c(c4)OCCO5)C3)n2)cc1` (centres undefined): the z-score stood at 0.368. Take `Cc1nn(C)cc1CNC(=O)Nc1cccc(Cl)c1`: the z-score worked out at 0.0377.

`O=S(=O)(c1ccc(Cl)cc1)n1c(Cc2ccccc2)nc2ccccc21` yielded a z-score of -0.171.

In turn, `CCOC(=O)c1cnc(Nc2nc3ccccc3o2)nc1CSc1nnc(C)s1` gave a z-score of 0.179.

`CCSc1cc(C)nc2ncnn12` displayed a z-score of 0.0597. The compound `CCc1sc(C(=O)Nc2cc(Cl)ccc2N2CCCCC2)cc1C` gave a z-score of 0.176. In the case of `Cc1cc(F)ccc1S(=O)(=O)Nc1ccccc1C(=O)Nc1ccccc1-c1nc2ccccc2[nH]1` it was -0.235; in that of `COc1cccc(N/C(SC)=C(/C#N)C(N)=O)c1`, 0.184; in that of `COc1ccc(-c2cc(-c3nnc(COC(=O)CC4CCCC4)o3)c3ccccc3n2)cc1OC`, -0.171. As to `Cc1ccccc1NC(=O)C1(C)Cc2ccccc2C(=O)O1` (centres undefined), the z-score is 0.354. Then `O=C(CN1C(=O)c2ccccc2C1=O)NNC1=NS(=O)(=O)c2ccccc21`, with 0.0472; and `CC(C)CCOP(=O)(c1ccccc1)c1ccccc1`, with -2.77; and `CCOC(=O)C1CSC(CC(=O)Nc2ccc(OCC)cc2)C(=O)N1` (centres undefined), with -0.0647. Consider `COC(=O)c1ccc(CSc2nnc(C)s2)cc1`, for which the z-score is -0.133. `Cn1cccc1C(=S)N1CCOCC1` returned a z-score of 1.12. `O=C(COc1ccccc1)Nn1cnc2ccccc21` showed a z-score of -0.833. In the case of `N/C(=N\OC(=O)CC1CCCCC1)c1ccccn1` it was -0.1; in that of `O=C(NC1CC1)C1CCC(=O)N1C1CCCC1` (centres undefined), 0.108. On to `CCCCCCNCc1ccc(Br)cc1`, for which the z-score is -0.0374.

On to `CC(=O)Cc1nsc(Nc2ccccc2)n1`, for which the z-score stood at 0.418.

Consider `Cc1ccccc1N1C(=O)CC(Sc2nnc(-c3ccccc3)o2)C1=O` (centres undefined), for which the z-score came out at 0.0122. Compound `O=C(Nc1ccccc1)N1CCOCC1` yielded a z-score of -0.206. The compound `Cn1ccnc1Sc1nc2c(c(=O)n(C)c(=O)n2C)n1C` registered a z-score of 0.204.

`CCC(C)c1ccc(S(=O)(=O)N2CC(=O)Nc3ccccc32)cc1` (centres undefined): the z-score is -0.268. In turn, `Cc1nn2c(-n3ccnc3C)c3c(nc2c1-c1ccccc1)CCC3` had a z-score of -0.311. The compound `CCc1nnc(NC(=O)c2ccc(-c3ccccc3Cl)o2)s1` returned a z-score of -0.559. Then `O=c1cc(N2CCN(c3ccc(F)cc3)CC2)[nH]c(=O)n1Cc1ccc(F)cc1`, with 0.0667; and `C=C(C)C(=O)OC1(C(F)(F)F)Oc2cc(C)ccc2NC1=O` (centres undefined), with -0.772.

Compound `COc1ccc(NC(=O)Cn2nnc(C(=O)NCCc3ccc(OC)c(OC)c3)c2N)cc1` returned a z-score of 0.0718. Take `COc1nccnc1NS(=O)(=O)c1ccc(NC(=S)NC(=O)c2cccc(F)c2)cc1`: the z-score is -0.186.

`COCCn1c(SCC(=O)Nc2cc(C)cc(C)c2)nnc1C(C)C` yielded a z-score of -0.196. Regarding `Cc1ccc(N)cc1-n1c(C)ccc1C`, the z-score amounted to 0.0348.

With `CCCn1nnc(NC(=O)C(c2ccccc2)c2ccccc2)n1`, the z-score was 0.792.

`O=C1C2ON(c3ccccc3)C(c3ccccc3F)C2C(=O)N1c1ccccc1` (centres undefined) returned a z-score of -0.108. In the case of `COc1ccc(-c2nc3scc(-c4ccccc4)n3n2)cc1` it was 0.453; in that of `COC(=O)C1=C(C)N(c2cccc(Cl)c2)C(=O)C1`, -0.271; in that of `COC(=O)c1c(NC(NC(=O)C(C)C)C(Cl)(Cl)Cl)sc2c1CCC2` (centres undefined), -0.164. Then `COc1ccc(OC)c(N=c2ssnc2Cl)c1`, with 0.0164; and `COc1ccc(OC)c2c1sc(=NC(=O)CN1C(=O)CCC1=O)n2C`, with -0.248; and `CC(OC(=O)c1cccs1)C(=O)NCc1ccccc1` (centres undefined), with -0.186.

For the compound `C=CCNC(=O)C12CC3(C)CC(C)(CC(C)(C3)C1)C2`, the z-score is -0.477. Compound `C/C(=N/NC(=O)c1cc(C2CC2)[nH]n1)c1cccs1` displayed a z-score of -0.291. Regarding `CCOc1ccc(NS(=O)(=O)c2ccc(NC(=O)[C@@H]3CCCC[C@@H]3C(=O)O)cc2)cc1`, the z-score was determined as 0.0947. On to `CN(CC(=O)Nc1ccccn1)S(=O)(=O)c1ccc(Cl)cc1`, for which the z-score was -0.263.

Compound `O=C(NCCCN1CCOCC1)c1cc2ccccc2o1` registered a z-score of -0.144.

For the compound `CCOC(=O)c1nnn(-c2nonc2N)c1-c1cccc2ccccc12`, the z-score was -1.66.

The compound `COC(=O)C1=C(C)N(c2ccc(F)cc2)C(=O)C1` yielded a z-score of 0.436. `COc1cccc(-c2nc(-c3ccc(NC(=O)c4cccs4)cc3)no2)c1`: the z-score is -0.227.

On to `CN(CC(=O)Nc1ccc(N2CCOCC2)cc1)CC(=O)Nc1ccccc1[N+](=O)[O-]`, for which the z-score is -0.146.

Turning to `O=C1CCC(C(=O)N(Cc2ccco2)C2(C(=O)NC3CCCC3)CCCCC2)N1` (centres undefined), the z-score is -0.815. On to `Cc1ccccc1NS(=O)(=O)c1cc(C(=O)NCCC2=CCCCC2)ccc1C`, for which the z-score was -0.297.

For `O=S(=O)(c1ccccc1)c1cnc(-c2cccnc2)nc1-c1ccc(Cl)c(Cl)c1`, the z-score is -0.328. For the compound `O=C(c1ccco1)c1nc2c(n1O)CCCCC2`, the z-score was -0.169. For the compound `O=C(Nc1nc2c(s1)CCc1ccccc1-2)c1cccs1`, the z-score is -0.0995. As to `Cc1ccc(/C=c2/sc3nnc(-c4ccccc4Cl)n3c2=O)o1`, the z-score was -0.433.

The compound `CN(C)c1ccc(C(=S)N2CCCCCC2)cc1` returned a z-score of -0.472. For `CC1(C)C2CC=C(/C=N/NC(=O)c3ccccc3Br)C1C2` (centres undefined), the z-score was -0.56. Then `Cc1cccc(C)c1NC(=O)Cn1c(CN2CCCCC2)nc2ccccc2c1=O`, with -0.232; and `Cc1cc(=O)[nH]c(NN=C(CC(C)C)CC(C)C)n1`, with -0.256. In the case of `O=S(=O)(NCc1ccncc1)c1ccc(S(=O)(=O)NCC2CCCO2)cc1` (centres undefined) it was 1.96; in that of `O=c1c2ccccc2nc(CSc2ncnc3nc[nH]c23)n1-c1cccc(C(F)(F)F)c1`, -0.256. Consider `Clc1ccc(-c2nnn(Cc3nc4ccccc4s3)n2)cc1`, for which the z-score was 0.201.

As for `CC(Sc1nnc(NC(=O)c2cc3ccccc3oc2=O)s1)c1ccccc1` (centres undefined), the z-score was -0.148. As for `Clc1ccc(-c2nnc3n2CCCC3)cc1Cl`, the z-score is -0.122.

As for `O=C(Nc1ccc(S(=O)(=O)N2CCCCCC2)cc1)C1CCCO1` (centres undefined), the z-score is -0.179. Consider `CC(C)n1cc(/C=C2/SC(=O)N(CC(=O)N3CCCC3)C2=O)c2ccccc21`, for which the z-score was -0.33. In the case of `Cc1nc2c(cc1C(=O)N/N=C/c1ccc([N+](=O)[O-])cc1)c(=O)n(C)c(=O)n2C` it was -0.192.

Turning to `Cc1n[nH]c(C)c1S(=O)(=O)Nc1ccc2c(c1)OCCO2`, the z-score is 0.0978.

The compound `Cc1ccc(C2CC(=O)Nc3cc4c(cc32)OCCO4)s1` (centres undefined) had a z-score of -0.217. `O=C(NCCN1CCOCC1)c1ccccc1Oc1ccccc1`: the z-score is -0.115.
